These results are taken from paper PMC12820563, “FoxP3 forms a head-to-head dimer in vivo and stabilizes its multimerization on adjacent microsatellites”.

Some of the results follow.

This experiment concerns the target T1, MBP-FoxP1dN (Mus musculus, UniProt P58462 326-579).
T1 sequence: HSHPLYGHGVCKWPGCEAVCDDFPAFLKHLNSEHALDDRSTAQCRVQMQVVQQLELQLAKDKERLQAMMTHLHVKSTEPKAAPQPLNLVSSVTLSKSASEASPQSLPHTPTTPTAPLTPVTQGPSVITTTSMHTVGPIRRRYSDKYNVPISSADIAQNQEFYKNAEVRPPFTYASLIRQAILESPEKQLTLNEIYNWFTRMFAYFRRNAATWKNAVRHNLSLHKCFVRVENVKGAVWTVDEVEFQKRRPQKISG
Nature of the experiment: PD-seq (MBP pull-down with sequencing); 20 mM Tris-HCl pH 7.5, 100 mM NaCl, 1.5 mM MgCl2, 0.4 uM protein, 0.1 uM dsDNA library, 30 min, room temperature, amylose pull-down; high values mean tight binding. Conditions: protein: recombinant; tags: His6-MBP; chain copies: 2; dsDNA, one strand shown. The method, boiled down: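 In Tris pH 7.5 buffer with NaCl and MgCl2, 0.4 µM His6-MBP-tagged mouse FoxP3 or FoxP1 fragment lacking the N-terminus, from E. coli, met 0.1 µM Klenow-filled double-stranded degenerate DNA library for 30 min at room temperature. Three washes on amylose resin followed capture of the complexes, then proteinase K release of DNA, PCR barcoding and Illumina sequencing. Binding is taken as pooled-replicate reads-per-million enrichment of pull-down relative to input.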
As to “GATGATTGTTCTCCCAGCTGATGAATTGGTGGATTCGAGTAAACAAATTTTCCTAATCTTTCTGTTCAAGCGCCATCTAC”, the binding signal was 0.975 RPM ratio (pull-down/input). For “GATGATTGTTCTCCCAGCTGATGAATTGCTGTAGTCGAGTAAACAAATTTTCCTAATCTTTCTGTTCAAGCGCCATCTAC” the value was 1.2 RPM ratio (pull-down/input). The result for “GATGATTGTTCTCCCAGCTGATGAATTTGGGTTCTCGAGTAAACAAATTTTCCTAATCTTTCTGTTCAAGCGCCATCTAC” reads 0.83 RPM ratio (pull-down/input). As to “GATGATTGTTCTCCCAGCTGATGAATTACTACATTCGAGTAAACAAATTTTCCTAATCTTTCTGTTCAAGCGCCATCTAC”, the binding signal was 1.27 RPM ratio (pull-down/input). For “GATGATTGTTCTCCCAGCTGATGAATTCCTCACGTCGAGTAAACAAATTTTCCTAATCTTTCTGTTCAAGCGCCATCTAC” the value was 0.918 RPM ratio (pull-down/input); for “GATGATTGTTCTCCCAGCTGATGAATTGGTCTTCTCGAGTAAACAAATTTTCCTAATCTTTCTGTTCAAGCGCCATCTAC”, 0.855 RPM ratio (pull-down/input); for “GATGATTGTTCTCCCAGCTGATGAATTAAAGAAGTCGAGTAAACAAATTTTCCTAATCTTTCTGTTCAAGCGCCATCTAC”, 0.84 RPM ratio (pull-down/input). Take “GATGATTGTTCTCCCAGCTGATGAATTCGCGCCATCGAGTAAACAAATTTTCCTAATCTTTCTGTTCAAGCGCCATCTAC”: the binding signal is 0.994 RPM ratio (pull-down/input). For “GATGATTGTTCTCCCAGCTGATGAATTAGGCCGGTCGAGTAAACAAATTTTCCTAATCTTTCTGTTCAAGCGCCATCTAC” the value was 0.777 RPM ratio (pull-down/input); for “GATGATTGTTCTCCCAGCTGATGAATTATACAGGTCGAGTAAACAAATTTTCCTAATCTTTCTGTTCAAGCGCCATCTAC”, 1.06 RPM ratio (pull-down/input); for “GATGATTGTTCTCCCAGCTGATGAATTACGCGCTTCGAGTAAACAAATTTTCCTAATCTTTCTGTTCAAGCGCCATCTAC”, 1.04 RPM ratio (pull-down/input). As for “GATGATTGTTCTCCCAGCTGATGAATTTTGCCCCTCGAGTAAACAAATTTTCCTAATCTTTCTGTTCAAGCGCCATCTAC”, the binding signal was 0.878 RPM ratio (pull-down/input). Take “GATGATTGTTCTCCCAGCTGATGAATTAGGTATATCGAGTAAACAAATTTTCCTAATCTTTCTGTTCAAGCGCCATCTAC”: the binding signal is 0.972 RPM ratio (pull-down/input). Consider “GATGATTGTTCTCCCAGCTGATGAATTTCACGCTTCGAGTAAACAAATTTTCCTAATCTTTCTGTTCAAGCGCCATCTAC”, for which the binding signal is 0.901 RPM ratio (pull-down/input). On to “GATGATTGTTCTCCCAGCTGATGAATTACGTGAATCGAGTAAACAAATTTTCCTAATCTTTCTGTTCAAGCGCCATCTAC”, for which the binding signal was 1.11 RPM ratio (pull-down/input). Consider “GATGATTGTTCTCCCAGCTGATGAATTAGCATAATCGAGTAAACAAATTTTCCTAATCTTTCTGTTCAAGCGCCATCTAC”, for which the binding signal is 1.18 RPM ratio (pull-down/input). Regarding “GATGATTGTTCTCCCAGCTGATGAATTGTAAATATCGAGTAAACAAATTTTCCTAATCTTTCTGTTCAAGCGCCATCTAC”, the binding signal was 2.72 RPM ratio (pull-down/input).

Consider “GATGATTGTTCTCCCAGCTGATGAATTTGCAAGTTCGAGTAAACAAATTTTCCTAATCTTTCTGTTCAAGCGCCATCTAC”, for which the binding signal is 1.01 RPM ratio (pull-down/input). For “GATGATTGTTCTCCCAGCTGATGAATTAATTGGGTCGAGTAAACAAATTTTCCTAATCTTTCTGTTCAAGCGCCATCTAC” the value was 0.951 RPM ratio (pull-down/input); for “GATGATTGTTCTCCCAGCTGATGAATTGCAGAGGTCGAGTAAACAAATTTTCCTAATCTTTCTGTTCAAGCGCCATCTAC”, 0.92 RPM ratio (pull-down/input).

Regarding “GATGATTGTTCTCCCAGCTGATGAATTAGTATGGTCGAGTAAACAAATTTTCCTAATCTTTCTGTTCAAGCGCCATCTAC”, the binding signal was 1.01 RPM ratio (pull-down/input).

For “GATGATTGTTCTCCCAGCTGATGAATTCTACACGTCGAGTAAACAAATTTTCCTAATCTTTCTGTTCAAGCGCCATCTAC”, the binding signal was 0.923 RPM ratio (pull-down/input). The result for “GATGATTGTTCTCCCAGCTGATGAATTAGTGAACTCGAGTAAACAAATTTTCCTAATCTTTCTGTTCAAGCGCCATCTAC” reads 0.879 RPM ratio (pull-down/input). Consider “GATGATTGTTCTCCCAGCTGATGAATTTGCCAGTTCGAGTAAACAAATTTTCCTAATCTTTCTGTTCAAGCGCCATCTAC”, for which the binding signal was 0.977 RPM ratio (pull-down/input).

As for “GATGATTGTTCTCCCAGCTGATGAATTAATCACATCGAGTAAACAAATTTTCCTAATCTTTCTGTTCAAGCGCCATCTAC”, the binding signal is 1.3 RPM ratio (pull-down/input).

Take “GATGATTGTTCTCCCAGCTGATGAATTTGTGGCGTCGAGTAAACAAATTTTCCTAATCTTTCTGTTCAAGCGCCATCTAC”: the binding signal was 1.17 RPM ratio (pull-down/input). Take “GATGATTGTTCTCCCAGCTGATGAATTTTATCCCTCGAGTAAACAAATTTTCCTAATCTTTCTGTTCAAGCGCCATCTAC”: the binding signal was 0.949 RPM ratio (pull-down/input). “GATGATTGTTCTCCCAGCTGATGAATTGTCTCGTTCGAGTAAACAAATTTTCCTAATCTTTCTGTTCAAGCGCCATCTAC”: the binding signal was 0.908 RPM ratio (pull-down/input).

For the sequence “GATGATTGTTCTCCCAGCTGATGAATTCCTGCTGTCGAGTAAACAAATTTTCCTAATCTTTCTGTTCAAGCGCCATCTAC”, the binding signal was 1.13 RPM ratio (pull-down/input). In the case of “GATGATTGTTCTCCCAGCTGATGAATTGCTAATTTCGAGTAAACAAATTTTCCTAATCTTTCTGTTCAAGCGCCATCTAC”, the binding signal was 1.35 RPM ratio (pull-down/input). As for “GATGATTGTTCTCCCAGCTGATGAATTCTCGTGTTCGAGTAAACAAATTTTCCTAATCTTTCTGTTCAAGCGCCATCTAC”, the binding signal was 0.906 RPM ratio (pull-down/input). As for “GATGATTGTTCTCCCAGCTGATGAATTTCCTCAATCGAGTAAACAAATTTTCCTAATCTTTCTGTTCAAGCGCCATCTAC”, the binding signal was 0.921 RPM ratio (pull-down/input). For “GATGATTGTTCTCCCAGCTGATGAATTCCGATCATCGAGTAAACAAATTTTCCTAATCTTTCTGTTCAAGCGCCATCTAC”, the binding signal is 0.875 RPM ratio (pull-down/input).

Regarding “GATGATTGTTCTCCCAGCTGATGAATTGGTTGATTCGAGTAAACAAATTTTCCTAATCTTTCTGTTCAAGCGCCATCTAC”, the binding signal is 1.07 RPM ratio (pull-down/input). “GATGATTGTTCTCCCAGCTGATGAATTGGGGACGTCGAGTAAACAAATTTTCCTAATCTTTCTGTTCAAGCGCCATCTAC”: the binding signal was 0.865 RPM ratio (pull-down/input). For “GATGATTGTTCTCCCAGCTGATGAATTTGGATTGTCGAGTAAACAAATTTTCCTAATCTTTCTGTTCAAGCGCCATCTAC” the value was 1.02 RPM ratio (pull-down/input); for “GATGATTGTTCTCCCAGCTGATGAATTTCCTTGCTCGAGTAAACAAATTTTCCTAATCTTTCTGTTCAAGCGCCATCTAC”, 0.803 RPM ratio (pull-down/input); for “GATGATTGTTCTCCCAGCTGATGAATTGACTTACTCGAGTAAACAAATTTTCCTAATCTTTCTGTTCAAGCGCCATCTAC”, 1.07 RPM ratio (pull-down/input). As to “GATGATTGTTCTCCCAGCTGATGAATTCTTAGTGTCGAGTAAACAAATTTTCCTAATCTTTCTGTTCAAGCGCCATCTAC”, the binding signal is 0.919 RPM ratio (pull-down/input). For “GATGATTGTTCTCCCAGCTGATGAATTGTCGTCATCGAGTAAACAAATTTTCCTAATCTTTCTGTTCAAGCGCCATCTAC”, the binding signal was 1.23 RPM ratio (pull-down/input).
